In PubChem BioAssay AID493208 (National Center for Advancing Translational Sciences (NCATS), 2011):
Among all 44,000 compounds or so, about 340 (0.77%) were called active. Roughly 5% stayed inconclusive and do not appear here. The call rests on the fitted dose curve; in most records, active means well fitted inhibition curve with a large enough effect; inconclusive means small, poorly fitted or top-dose-only effect; inactive means flat fitted curve, though single readings scatter. The list shows a part of the results.

test: Acumen qHTS Assay for Inhibitors of the mTORC1 Signaling Pathway in MEF (Tsc2-/-, p53-/-) Cells: Sytravon; details: phospho-rpS6 immunofluorescence/PI, 24 h; series mostly up to 38.3 µM; activity change, negative = inhibition: at the top concentration;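 further: plate controls were DMSO for no effect and rapamycin for full effect; nearly all actives have a fitted effect of over 50% in size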
Procedure, shortened: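 Compounds act on Tsc2-/-, p53-/- fibroblasts carrying an empty vector for 24 h before fixation and dual staining for phospho-S6 and DNA (propidium iodide). Values are percentages of cells above a rapamycin-defined pS6/PI threshold.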

Activity change, negative = inhibition, inactive:
CC(C)Cn1c(=O)c2ccccc2n2c(CCC(=O)Nc3ccc(F)c(F)c3)nnc12 -6.08%, O=C(NCCc1ccccc1)c1ccc2c(c1)CCN2S(=O)(=O)c1ccccc1 -18%, Cc1ccc(S(=O)(=O)N2CCC(C(=O)Nc3ccc(Oc4ccccc4)cc3)CC2)cc1 -22.4%, CC(C)CSc1ccccc1NC(=O)c1sc2nc(-c3ccncc3)ccc2c1N -18.5%, CCOC(=O)c1c(NC(=O)C(C)Oc2ccc(Cl)c(C)c2)sc2c1CCCC2 (configuration not stated) -4.88%, Cc1cc(C)cc(NC(=O)CN2C(=O)CCc3cc(S(=O)(=O)N4CCCCC4)ccc32)c1 0%, O=C(Cn1cc(S(=O)(=O)Cc2ccccc2F)c2ccccc21)NCc1ccccc1Cl -13.9%, Cc1nn2c(=O)cc(COC(=O)c3ccc(NC(=O)c4cccs4)cc3)nc2s1 9.7%, CCN(c1cc(C)cc(C)c1)S(=O)(=O)c1nnc(NC(=O)c2ccco2)s1 3.29%, COc1ccc(NC(=O)CCN2CCN(CCO)CC2)cc1 -9.45%, COc1ccc2[nH]cc(CCNC(=O)c3cnn(-c4ccccc4Cl)c3C3CCN(C(=O)OC(C)(C)C)CC3)c2c1 -4.39%, CCOc1ccc(C(=O)Nc2ccc(-c3nc4ccccc4s3)c(C)c2)cc1OCC 1.63%, Cc1nc2c(C(=O)NCCc3ccccc3)c[nH]n2c(=O)c1Cc1ccc(F)cc1Cl -14.5%, Cc1ccc(NC(=O)Cn2nnc(-c3nc(-c4ccc(Cl)cc4)no3)c2N)cc1C -4.47%, Cc1cccc(N2CCN(C(=O)c3ccc(NC(=O)c4nsc5ccccc45)cc3)CC2)c1C 8.24%, CCc1nc2c(cnn2-c2ccc(Cl)cc2)c(=O)n1-c1ccc(OC)c(Cl)c1 1.05%, Cc1ccc(OCC(=O)Nc2cc(-c3cccc(C)c3)nn2-c2ccccc2)cc1 7.22%, CCOc1ccccc1C(=O)Nc1cc2c(cc1N1CCOCC1)n(C)c(=O)n2C -28.6%, Cc1ccc(CCNC(=O)c2ccc3c(c2)c(C)c(C)n3Cc2ccccc2)cc1 -16%, COc1ccc(-n2c(=O)c3sc4ccccc4c3n(CC(=O)NCc3ccccc3)c2=O)cc1 9.18%, Cc1ccccc1CNC(=O)c1ccc(CS(=O)Cc2ccc(Cl)cc2)o1 (configuration not stated) 2.19%, Cc1ccc2nc(N(Cc3cccnc3)C(=O)c3cccs3)sc2c1 -4.05%, CCCn1c(CCC(=O)Nc2cccc(CC)c2)nc2cccnc21 -1.65%, CCOc1ccc(N2CC(c3nc4ccccc4n3Cc3cccc(C)c3)CC2=O)cc1 (configuration not stated) 4.2%, O=[N+]([O-])c1cc(-c2nc(-c3ccccc3)no2)ccc1NCCc1ccccc1 -5.72%, CCn1c(CC2C(=O)N(C)c3ccccc32)nc2ccccc2c1=O (configuration not stated) -12.5%, COc1ccc(Cl)cc1NC(=O)CSc1nc(-c2ccccc2)c2ccccc2n1 0.404%, O=C(Nc1cccc(F)c1)[C@@H](c1ccccc1)N1Cc2ccccc2C1=O -0.486%, CCc1ccc(NC(=O)CCCn2nc(C)c3c(C)n(-c4ccccc4)nc3c2=O)cc1 -2.75%, CC(C)CC(C(=O)NCCc1ccccc1)N1Cc2ccccc2C1=O (configuration not stated) -0.51%, Cc1nn(C(C)(C)C)c(OC(=O)c2cccc(F)c2)c1Sc1ccccc1 0.0251%, Cc1ccc(NC(=O)C(=O)NCCCN2CCOCC2)cc1C -1.44%, Cc1cccc(NC(=O)C2(C)Cc3ccccc3C(=O)O2)c1 (configuration not stated) -3.7%, CC(=O)Nc1ccc2nc(SCCOc3ccccc3)sc2c1 -0.783%, CCc1ccc(CN(Cc2ccco2)C(=O)COc2ccc(Cl)cc2C)cc1 -14.4%, Cc1c(CNC2CCCCCC2)c(C(=O)O)c(C)n1Cc1ccc(F)cc1 1.02%, COC(=O)c1ccc2c(=O)n(CCCCCC(=O)NC(C)C)c(=O)[nH]c2c1 -0.264%, O=C(NCc1ccccc1)N1CCc2c(sc3c2CCCC3)C1c1ccccc1 (configuration not stated) 1.49%, Cc1cc(C)cc(NC(=O)CCS(=O)(=O)c2ccc3c(c2)oc(=O)n3C)c1 7.35%, Cc1ccc(Cl)cc1NC(=O)N1CCc2cc(S(=O)(=O)N3CCC(C)CC3)ccc21 -3.86%, O=C(Nc1nnc2n1CCS2)c1ccccc1 1.44%, Cc1cccc(-n2ncc3c(N4CCN(CCO)CC4)ncnc32)c1 7.38%, CCOc1ccc(C(=O)Nc2ccc3nc(SCC(=O)N(C)c4ccccc4)sc3c2)cc1 -10.9%, CCOC(=O)c1cc(-c2ccc(OC)cc2)n(CCC(=O)Nc2ccc(OC)cc2OC)c1C -12.1%, CCOc1ccc(/C=C/c2nc3ccccc3n2S(=O)(=O)c2cccc(Cl)c2)cc1 -0.999%, COc1ccccc1CNC(=O)c1ccc(Nc2nc3ccccc3n3nnnc23)cc1 -24%, COc1cccc(-c2nc(SCC(=O)NC3CCCC3)c(-c3ccc(F)cc3)[nH]2)c1 2.77%, CC(C)c1ccc(/C=C(\C#N)c2nc(-c3cc4ccccc4oc3=O)cs2)cc1 6.17%, CCOC(=O)CCn1cnc2onc(-c3ccccc3Cl)c2c1=O -12.8%, CCOc1ccccc1NC(=O)C1=C(C)Nc2ncnn2C1c1ccccn1 (configuration not stated) -0.191%, COc1ccc(C2=C(C)C(=O)N(Cc3ccc(C(=O)Nc4ccc(C)c(C)c4)cc3)S2(=O)=O)cc1 -5.18%, COc1cc(Cl)c(C)cc1NS(=O)(=O)c1c(C)nc2sccn2c1=O -0.797%, COC(=O)c1ccc(Nc2ncnc3c2cnn3-c2ccccc2)cc1 9.32%, COc1cc(NC(=O)CCc2c(C)nc3c4c(C)cc(C)nc4nn3c2C)cc(OC)c1 -1.58%, Cc1cc(C)cc(NC(=O)CCCn2nc(C)c3c(C)n(-c4ccccc4)nc3c2=O)c1 -2.68%, COc1ccc(NC(=O)CN(c2ccccc2OC)S(C)(=O)=O)c(OC)c1 -7.13%, CCOC(=O)C1(C)C=C(Nc2cccc(C)c2)C(=O)N1c1ccccc1 (configuration not stated) -11.1%, COc1cc(-c2nnc(SCC(=O)Oc3ccc(C)cc3C)o2)cc(OC)c1OC -2.63%, Cc1ccc(CNC(=O)c2nc(S(=O)(=O)Cc3ccc(C)cc3)ncc2Cl)cc1 -10.8%, CCOCN(C(=O)Cn1c(CC(C)C)nc2ccccc21)c1c(C)cccc1CC 2.08%, CC(C)c1ccc(NC(=O)C(NS(=O)(=O)c2ccc3c(c2)CCC(=O)N3)c2ccccc2)cc1 (configuration not stated) -13.5%, Cn1c(=O)cc(OCC(=O)N2CCN(c3ccc(F)cc3)CC2)c2ccccc21 -4.9%, COc1cc(OC)cc(-c2cc3nc(C)c(CCC(=O)Nc4ccc(F)c(Cl)c4)c(C)n3n2)c1 -0.486%, Cc1cc(C)cc(NC(=O)c2ncn(-c3ccccc3)n2)c1 -1.24%, Cc1c(Cl)cccc1NC(=O)C(C)N(c1ccccc1)S(C)(=O)=O (configuration not stated) -12.6%, CCc1ccc(NC(=O)N(Cc2cn(CC)c3ccccc23)C2CCCCC2)cc1 -6.86%, Cc1ccc(-c2cn3cccnc3n2)cc1NC(=O)Cc1ccccc1 -7.33%, O=S(=O)(c1ccccc1)c1nc(-c2ccccc2)oc1N1CCN(c2cccc(Cl)c2)CC1 -5.14%, CCc1ccc(NC(=O)COCc2cc(-c3ccc(F)cc3)on2)cc1 0.251%, O=C(CSCc1cnn(-c2ccccc2)c1-n1cccc1)NCc1ccccc1Br -4.15%, COc1ccc(Cc2nc3ccc(C(=O)NCCc4ccccc4)cc3o2)cc1 -3.04%, CCc1ccccc1-n1c2c(cc(-c3nc(-c4ccc(Cl)cc4)cs3)c1=O)C(=O)CC(C)(C)C2 1.87%, CC(=O)N1c2ccc(S(=O)(=O)NCC3CCC(C(=O)Nc4ccc(F)cc4)CC3)cc2CC1C (configuration not stated) -7.99%, CCOC(=O)c1c(C)[nH]c(C)c1S(=O)(=O)N1CCN(c2ccc(Cl)cc2)CC1 3.35%, COc1cccc(NC(=O)C2CCN(c3cc(C)nc4c(-c5ccc(Cl)cc5)c(C)nn34)CC2)c1 0.289%, O=C(COc1ccc(F)cc1)NC1CC(=O)N(c2ccc3c(c2)OCCO3)C1 (configuration not stated) -5.59%, COc1ccc(CNC(=O)c2ccc3c(c2)CCN3S(=O)(=O)c2ccc(Cl)cc2)cc1 -13.7%, CCOc1ccc(OCC)c(NS(=O)(=O)c2ccc3[nH]c(=O)ccc3c2)c1 -6.94%, COc1cc2nc(SCC(=O)Nc3cccc(C)c3)n3nc(CCn4c(C)nc5ccccc54)nc3c2cc1OC -21%, CC(NC(=O)C1=Cc2ccccc2OC1)c1ccccc1 (configuration not stated) -7.14%, CC(=O)Nc1ccc(NC(=O)Cn2c(=O)ccc3cc(S(=O)(=O)N4CCC(C)CC4)ccc32)cc1 -1.94%, CCC(C)NC(=O)c1sc2nc(C)c(C(=O)Nc3ccc(C)cc3C)c(-c3ccc(Br)cc3)c2c1N (configuration not stated) 0%, COc1cc(C2NC(=O)N(C)C3=C2C(=O)N(c2ccccc2)C3)ccc1O (configuration not stated) -0.651%, Cc1ccc2[nH]c(=O)c3cc(C(=O)N4CCN(c5ccccc5F)CC4)sc3c2c1 -1.39%, COc1ccc(-c2cnc(NCc3ccc(C)cc3)n2C)cc1 -19.9%, O=C(CSc1nc(-c2ccccc2)cc(=O)[nH]1)Nc1ccccc1F -7.15%, COc1ccccc1CNC(=O)c1nn(-c2ccc(C)cc2)c(=O)c2c1c1ccccc1n2C 7.96%, COc1ccc(CCNC(=O)CSc2nc3ccccc3nc2Cc2ccc(C)cc2)cc1OC 4.34%, Cc1cccc(CSc2ncc(Cl)c(C(=O)Nc3sc4c(c3C#N)CCCC4)n2)c1 0.881%, CCN(CC)c1nc2c(S(=O)(=O)c3ccc(C)cc3)nnn2c2ccsc12 -0.348%, COc1ccccc1NC(=O)CSc1oc(-c2cccs2)nc1S(=O)(=O)c1ccc(C)cc1 -12.6%, O=C(NCc1ccccc1)c1cccc(NC(=O)N2CCSc3ncccc32)c1 -0.345%, CCn1ccc2cc(S(=O)(=O)N3CCC(C(=O)NCc4ccc(OC(C)C)cc4)CC3)ccc21 -11.1%, O=C(Nc1nnc(S(=O)(=O)N2CCCC2)s1)c1ccccc1Cl 0%, Cc1ccccc1NC(=O)c1ccccc1NC(=O)c1ccccc1F 0.104%, O=C(CN1C(=O)COc2ccc(S(=O)(=O)N3CCCCC3)cc21)NCCc1ccc(Cl)cc1 -8.67%, CCCSc1nnc2c(n1)OC(CC)N(C(C)=O)c1ccccc1-2 (configuration not stated) -0.722%
